Paper PMC11149917, “Translational and Therapeutic Evaluation of RAS-GTP Inhibition by RMC-6236 in RAS-Driven Cancers” (Cancer Discovery, 2024)
This continues a long series; more values of the same kind are listed elsewhere.

System: PRISM panel of 845 cancer cell lines
Test: PRISM assay
Assay type: cell-based, human
Experimental: The PRISM cell set comprised 845 cell lines representing more than 45 lineages (see Supplementary Table S1 for cell line information), which largely overlapped with the Cancer Cell Line Encyclopedia; https://portals.broadinstitute.org/ccle). Cell lines were grown in RPMI without phenol red and supplemented with 10% or 20% FBS for adherent and suspended lines, respectively. Parental cell lines were stably infected with a unique 24-nucleotide DNA barcode via lentiviral transduction and blasticidin selection. After selection, barcoded cell lines were expanded and subjected to quality control (Mycoplasma contamination test, an SNP test for confirming cell line identity, and barcode ID confirmation). Approved cell lines were then pooled (20–25 cell lines per pool) based on doubling time similarity and frozen in assay-ready vials.
RMC-6236 was added to 384-well plates at 8-point concentration with 3-fold dilutions in triplicate. These assay-ready plates were then seeded with the thawed cell line pools. Adherent cell pools were plated at 1,250 cells per well, whereas suspension and mixed adherent/suspension pools were plated at 2,000 cells per well. Treated cells were incubated for 5 days, and then lysed. Lysate plates were collapsed together prior to barcode amplification and detection.
Each cell line's unique barcode is located in the 3′UTR of the blasticidin-resistance gene and therefore is expressed as mRNA. Total mRNA was captured using magnetic particles that recognize polyA sequences. Captured mRNA was reverse-transcribed into cDNA and then the sequence containing the unique PRISM barcode was amplified using PCR. Finally, Luminex beads that recognize the specific barcode sequences in the cell set were hybridized to the PCR products and detected using a Luminex scanner which reports the signal as a median fluorescent intensity (MFI).
• Each detection well contained 10 control barcodes in increasing abundances as spike-in controls. For each plate, we first create a reference profile by calculating the median of the log2(MFI) values across negative control wells for each of these spiked-in barcodes. • For each well, a monotonic smooth p-spline was fitted to map the spike-in control levels to the reference profile. Next, we transform the log2(MFI) for each cell barcode using the fitted spline to allow well-to-well comparisons by correcting for amplification and detection artifacts. • Next, the separability between negative and positive control treatments was assessed. In particular, we calculated the error rate of the optimum simple threshold classifier between the control samples for each cell line and plate combination. The error rate is a measure of the overlap of the two control sets and was defined as error = (FP + FN)/n, where FP is false positives, FN is false negatives, and n is the total number of controls. A threshold was set between the distributions of positive and negative control log2(MFI) values (with everything below the threshold said to be positive and above said to be negative) such that this value is minimized. Additionally, we also calculated the dynamic range of each cell line. […] Additionally, any cell line that had less than 2 passing replicates was also omitted for the sake of reproducibility. Finally, we computed viability by normalizing with respect to the median negative control for each plate.
For every gene with nonsilent mutations in at least four cell lines, we compared the AUC values between cells with and without those mutations using a t test. This analysis was carried out for (i) the full data set; (ii) excluding cell lines with nonsilent KRAS mutations; and (iii) excluding cell lines that have either KRAS or NRAS nonsilent mutations.

Question: `CCn1c(-c2cc(N3CCN(C)CC3)cnc2[C@H](C)OC)c2c3cc(ccc31)-c1csc(n1)C[C@H](NC(=O)[C@H]1C[C@@H]1C)C(=O)N1CCC[C@H](N1)C(=O)OCC(C)(C)C2` [RMC-6236] was tested. Which “RMC-6236: RevMed PRISM: AUC” value (cell line KALS1_CENTRAL_NERVOUS_SYSTEM) did it give?
Answer: Its value is 0.9052.

Question: What about the “RMC-6236: RevMed PRISM: AUC” value (cell line KARPAS299_HAEMATOPOIETIC_AND_LYMPHOID_TISSUE) of the same compound?
Answer: Its value is 0.5877.

Question: And the “RMC-6236: RevMed PRISM: AUC” value (cell line KARPAS620_HAEMATOPOIETIC_AND_LYMPHOID_TISSUE, KRAS p.G12D)?
Answer: The value was 0.494.

Question: What about the “RMC-6236: RevMed PRISM: AUC” value (cell line KARPAS1718_HAEMATOPOIETIC_AND_LYMPHOID_TISSUE) of the same compound?
Answer: The value was 1.

Question: What about the “RMC-6236: RevMed PRISM: AUC” value (cell line KCL22_HAEMATOPOIETIC_AND_LYMPHOID_TISSUE) of the same compound?
Answer: The value was 0.7594.

Question: And the “RMC-6236: RevMed PRISM: AUC” value (cell line KD_SOFT_TISSUE)?
Answer: The value was 1.

Question: And the “RMC-6236: RevMed PRISM: AUC” value (cell line KELLY_AUTONOMIC_GANGLIA)?
Answer: The value was 0.9091.

Question: What about the “RMC-6236: RevMed PRISM: AUC” value (cell line KKU055_BILIARY_TRACT) of the same compound?
Answer: The value was 1.

Question: What about the “RMC-6236: RevMed PRISM: AUC” value (cell line KMH2_HAEMATOPOIETIC_AND_LYMPHOID_TISSUE) of the same compound?
Answer: The value was 0.9666.

Question: What about the “RMC-6236: RevMed PRISM: AUC” value (cell line KMRC1_KIDNEY) of the same compound?
Answer: The value was 1.

Question: And the “RMC-6236: RevMed PRISM: AUC” value (cell line KMRC3_KIDNEY)?
Answer: Its value is 0.9256.

Question: What about the “RMC-6236: RevMed PRISM: AUC” value (cell line KMS11_HAEMATOPOIETIC_AND_LYMPHOID_TISSUE) of the same compound?
Answer: The value was 0.7986.

Question: And the “RMC-6236: RevMed PRISM: AUC” value (cell line KMS27_HAEMATOPOIETIC_AND_LYMPHOID_TISSUE, NRAS p.Q61R)?
Answer: Its value is 0.4675.

Question: And the “RMC-6236: RevMed PRISM: AUC” value (cell line KNS42_CENTRAL_NERVOUS_SYSTEM)?
Answer: The value was 0.8422.

Question: What about the “RMC-6236: RevMed PRISM: AUC” value (cell line KNS81_CENTRAL_NERVOUS_SYSTEM) of the same compound?
Answer: Its value is 0.628.

Question: What about the “RMC-6236: RevMed PRISM: AUC” value (cell line KOPN8_HAEMATOPOIETIC_AND_LYMPHOID_TISSUE, KRAS p.G12D) of the same compound?
Answer: Its value is 0.38.

Question: What about the “RMC-6236: RevMed PRISM: AUC” value (cell line KPNYN_AUTONOMIC_GANGLIA) of the same compound?
Answer: Its value is 0.8774.

Question: What about the “RMC-6236: RevMed PRISM: AUC” value (cell line KYSE510_OESOPHAGUS) of the same compound?
Answer: The value was 0.6513.

Question: And the “RMC-6236: RevMed PRISM: AUC” value (cell line L82_HAEMATOPOIETIC_AND_LYMPHOID_TISSUE)?
Answer: Its value is 0.5122.

Question: And the “RMC-6236: RevMed PRISM: AUC” value (cell line L363_HAEMATOPOIETIC_AND_LYMPHOID_TISSUE, NRAS p.Q61H)?
Answer: The value was 0.781.

Question: What about the “RMC-6236: RevMed PRISM: AUC” value (cell line LN382_CENTRAL_NERVOUS_SYSTEM) of the same compound?
Answer: The value was 0.6625.

Question: What about the “RMC-6236: RevMed PRISM: AUC” value (cell line LNZ308_CENTRAL_NERVOUS_SYSTEM) of the same compound?
Answer: Its value is 0.6958.

Question: What about the “RMC-6236: RevMed PRISM: AUC” value (cell line LS513_LARGE_INTESTINE, KRAS p.G12D) of the same compound?
Answer: Its value is 0.3713.

Question: What about the “RMC-6236: RevMed PRISM: AUC” value (cell line LXF289_LUNG) of the same compound?
Answer: Its value is 0.7676.

Question: And the “RMC-6236: RevMed PRISM: AUC” value (cell line MB1_THYROID)?
Answer: The value was 0.7794.

Question: And the “RMC-6236: RevMed PRISM: AUC” value (cell line MC116_HAEMATOPOIETIC_AND_LYMPHOID_TISSUE)?
Answer: The value was 0.9435.

Question: What about the “RMC-6236: RevMed PRISM: AUC” value (cell line MDAMB231_BREAST, KRAS p.G13D) of the same compound?
Answer: Its value is 0.689.

Question: And the “RMC-6236: RevMed PRISM: AUC” value (cell line MDAMB453_BREAST)?
Answer: The value was 0.7834.

Question: What about the “RMC-6236: RevMed PRISM: AUC” value (cell line MELJUSO_SKIN, NRAS p.Q61L, HRAS p.G13D) of the same compound?
Answer: Its value is 0.455.

Question: And the “RMC-6236: RevMed PRISM: AUC” value (cell line MESSA_SOFT_TISSUE)?
Answer: The value was 0.8726.

Question: And the “RMC-6236: RevMed PRISM: AUC” value (cell line MFE280_ENDOMETRIUM)?
Answer: Its value is 0.7287.

Question: What about the “RMC-6236: RevMed PRISM: AUC” value (cell line MHHNB11_AUTONOMIC_GANGLIA) of the same compound?
Answer: Its value is 0.6251.

Question: What about the “RMC-6236: RevMed PRISM: AUC” value (cell line MKN74_STOMACH) of the same compound?
Answer: Its value is 0.8136.

Question: What about the “RMC-6236: RevMed PRISM: AUC” value (cell line MM127_SKIN, NRAS p.G13R) of the same compound?
Answer: The value was 0.5705.

Question: What about the “RMC-6236: RevMed PRISM: AUC” value (cell line MOLM13_HAEMATOPOIETIC_AND_LYMPHOID_TISSUE) of the same compound?
Answer: Its value is 0.4387.

Question: What about the “RMC-6236: RevMed PRISM: AUC” value (cell line MOLT3_HAEMATOPOIETIC_AND_LYMPHOID_TISSUE, NRAS p.Q61K) of the same compound?
Answer: Its value is 0.9222.

Question: What about the “RMC-6236: RevMed PRISM: AUC” value (cell line MOLT16_HAEMATOPOIETIC_AND_LYMPHOID_TISSUE) of the same compound?
Answer: The value was 0.6744.

Question: What about the “RMC-6236: RevMed PRISM: AUC” value (cell line MONOMAC1_HAEMATOPOIETIC_AND_LYMPHOID_TISSUE) of the same compound?
Answer: Its value is 0.7083.

Question: And the “RMC-6236: RevMed PRISM: AUC” value (cell line MON_SOFT_TISSUE)?
Answer: The value was 0.4149.

Question: What about the “RMC-6236: RevMed PRISM: AUC” value (cell line NALM6_HAEMATOPOIETIC_AND_LYMPHOID_TISSUE, NRAS p.A146T) of the same compound?
Answer: The value was 0.9095.

Question: What about the “RMC-6236: RevMed PRISM: AUC” value (cell line NCIH226_LUNG) of the same compound?
Answer: Its value is 0.6741.

Question: And the “RMC-6236: RevMed PRISM: AUC” value (cell line NCIH292_LUNG)?
Answer: Its value is 0.6545.

Question: And the “RMC-6236: RevMed PRISM: AUC” value (cell line NCIH446_LUNG)?
Answer: The value was 1.

Question: What about the “RMC-6236: RevMed PRISM: AUC” value (cell line NCIH508_LARGE_INTESTINE) of the same compound?
Answer: Its value is 0.6279.

Question: What about the “RMC-6236: RevMed PRISM: AUC” value (cell line NCIH522_LUNG) of the same compound?
Answer: Its value is 0.7846.

Question: What about the “RMC-6236: RevMed PRISM: AUC” value (cell line NCIH524_LUNG) of the same compound?
Answer: Its value is 0.99.

Question: And the “RMC-6236: RevMed PRISM: AUC” value (cell line NCIH747_LARGE_INTESTINE, KRAS p.G13D)?
Answer: Its value is 0.4808.
